Data taken from article PMC9911399, “Two distinct binding modes provide the RNA-binding protein RbFox with extraordinary sequence specificity”.
Numbering of substitutions follows the chain as printed; changes in the protein carry UniProt numbers. The list shows a part of the results.

T1: RBFOX1 RRM RbFoxmut (Fox-RRM*) (Homo sapiens, UniProt Q9NWB1 109-208, R118D;E147R;N151S;E152T)
T1 sequence: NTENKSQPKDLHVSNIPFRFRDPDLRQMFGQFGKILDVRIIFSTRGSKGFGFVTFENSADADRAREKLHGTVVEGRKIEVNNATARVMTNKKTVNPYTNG

B1: AGGCCAG (DNA:RNA)
RNA: GGGAGACCGGAAUUCAGAUUGUCCAGGCCAGUUAAAUCCCGUCGUAGCCACCA
DNA 1: CAATCTGAATTCCGGTCTCCC
DNA 2: TGGTGGCTACGACGGGATT
B2: GCUGCCA (DNA:RNA)
RNA: B1 RNA with A25G, G26C, G27U, C28G, A30C, G31A
DNA 1: CAATCTGAATTCCGGTCTCCC
DNA 2: TGGTGGCTACGACGGGATT
B3: CGCAAUA (DNA:RNA)
RNA: B1 RNA with A25C, G27C, C28A, C29A, A30U, G31A
DNA 1: CAATCTGAATTCCGGTCTCCC
DNA 2: TGGTGGCTACGACGGGATT
B4: AUAGCUG (DNA:RNA)
RNA: B1 RNA with G26U, G27A, C28G, A30U
DNA 1: CAATCTGAATTCCGGTCTCCC
DNA 2: TGGTGGCTACGACGGGATT
B5: UAUAGAC (DNA:RNA)
RNA: B1 RNA with A25U, G26A, G27U, C28A, C29G, G31C
DNA 1: CAATCTGAATTCCGGTCTCCC
DNA 2: TGGTGGCTACGACGGGATT
B6: GUGUUGU (DNA:RNA)
RNA: B1 RNA with A25G, G26U, C28U, C29U, A30G, G31U
DNA 1: CAATCTGAATTCCGGTCTCCC
DNA 2: TGGTGGCTACGACGGGATT
B7: AGUCUAA (DNA:RNA)
RNA: B1 RNA with G27U, C29U, G31A
DNA 1: CAATCTGAATTCCGGTCTCCC
DNA 2: TGGTGGCTACGACGGGATT
B8: AUAUCUG (DNA:RNA)
RNA: B1 RNA with G26U, G27A, C28U, A30U
DNA 1: CAATCTGAATTCCGGTCTCCC
DNA 2: TGGTGGCTACGACGGGATT
B9: UCUCAGA (DNA:RNA)
RNA: B1 RNA with A25U, G26C, G27U, C29A, A30G, G31A
DNA 1: CAATCTGAATTCCGGTCTCCC
DNA 2: TGGTGGCTACGACGGGATT
B10: AGUGACG (DNA:RNA)
RNA: B1 RNA with G27U, C28G, C29A, A30C
DNA 1: CAATCTGAATTCCGGTCTCCC
DNA 2: TGGTGGCTACGACGGGATT
B11: UACGGCA (DNA:RNA)
RNA: GGGAGACCGGAAUUCAGAUUGUCCUACGGCAUUAAAUCCCGUCGUAGCCACCA
DNA 1: CAATCTGAATTCCGGTCTCCC
DNA 2: TGGTGGCTACGACGGGATT
B12: GGCUAAC (DNA:RNA)
RNA: B1 RNA with A25G, G27C, C28U, C29A, G31C
DNA 1: CAATCTGAATTCCGGTCTCCC
DNA 2: TGGTGGCTACGACGGGATT
B13: GCUCGAU (DNA:RNA)
RNA: B1 RNA with A25G, G26C, G27U, C29G, G31U
DNA 1: CAATCTGAATTCCGGTCTCCC
DNA 2: TGGTGGCTACGACGGGATT
B14: AACCUAA (DNA:RNA)
RNA: B1 RNA with G26A, G27C, C29U, G31A
DNA 1: CAATCTGAATTCCGGTCTCCC
DNA 2: TGGTGGCTACGACGGGATT
B15: AAUUUGU (DNA:RNA)
RNA: B1 RNA with G26A, G27U, C28U, C29U, A30G, G31U
DNA 1: CAATCTGAATTCCGGTCTCCC
DNA 2: TGGTGGCTACGACGGGATT
B16: GUGUCGG (DNA:RNA)
RNA: B1 RNA with A25G, G26U, C28U, A30G
DNA 1: CAATCTGAATTCCGGTCTCCC
DNA 2: TGGTGGCTACGACGGGATT
B17: CUGCGUG (DNA:RNA)
RNA: B1 RNA with A25C, G26U, C29G, A30U
DNA 1: CAATCTGAATTCCGGTCTCCC
DNA 2: TGGTGGCTACGACGGGATT
B18: ACAGACC (DNA:RNA)
RNA: B11 RNA with U25A, A26C, C27A, G29A, A31C
DNA 1: CAATCTGAATTCCGGTCTCCC
DNA 2: TGGTGGCTACGACGGGATT
B19: GGCUGUC (DNA:RNA)
RNA: B11 RNA with U25G, A26G, G28U, C30U, A31C
DNA 1: CAATCTGAATTCCGGTCTCCC
DNA 2: TGGTGGCTACGACGGGATT
B20: CAGAGAU (DNA:RNA)
RNA: B1 RNA with A25C, G26A, C28A, C29G, G31U
DNA 1: CAATCTGAATTCCGGTCTCCC
DNA 2: TGGTGGCTACGACGGGATT
B21: UUGAACG (DNA:RNA)
RNA: B1 RNA with A25U, G26U, C28A, C29A, A30C
DNA 1: CAATCTGAATTCCGGTCTCCC
DNA 2: TGGTGGCTACGACGGGATT
B22: GGGCCUG (DNA:RNA)
RNA: B1 RNA with A25G, A30U
DNA 1: CAATCTGAATTCCGGTCTCCC
DNA 2: TGGTGGCTACGACGGGATT
B23: UUAUGCU (DNA:RNA)
RNA: B11 RNA with A26U, C27A, G28U, A31U
DNA 1: CAATCTGAATTCCGGTCTCCC
DNA 2: TGGTGGCTACGACGGGATT
B24: CACGUUC (DNA:RNA)
RNA: B11 RNA with U25C, G29U, C30U, A31C
DNA 1: CAATCTGAATTCCGGTCTCCC
DNA 2: TGGTGGCTACGACGGGATT
B25: GGUGUAU (DNA:RNA)
RNA: B1 RNA with A25G, G27U, C28G, C29U, G31U
DNA 1: CAATCTGAATTCCGGTCTCCC
DNA 2: TGGTGGCTACGACGGGATT
B26: AAAGCGC (DNA:RNA)
RNA: B1 RNA with G26A, G27A, C28G, A30G, G31C
DNA 1: CAATCTGAATTCCGGTCTCCC
DNA 2: TGGTGGCTACGACGGGATT
B27: AUCUCCA (DNA:RNA)
RNA: B11 RNA with U25A, A26U, G28U, G29C
DNA 1: CAATCTGAATTCCGGTCTCCC
DNA 2: TGGTGGCTACGACGGGATT
B28: GUACCAG (DNA:RNA)
RNA: B1 RNA with A25G, G26U, G27A
DNA 1: CAATCTGAATTCCGGTCTCCC
DNA 2: TGGTGGCTACGACGGGATT
B29: GCCCGUU (DNA:RNA)
RNA: B11 RNA with U25G, A26C, G28C, C30U, A31U
DNA 1: CAATCTGAATTCCGGTCTCCC
DNA 2: TGGTGGCTACGACGGGATT
B30: GCUAUUC (DNA:RNA)
RNA: GGGAGACCGGAAUUCAGAUUGUCCGCUAUUCUUAAAUCCCGUCGUAGCCACCA
DNA 1: CAATCTGAATTCCGGTCTCCC
DNA 2: TGGTGGCTACGACGGGATT
B31: CGGACCU (DNA:RNA)
RNA: B1 RNA with A25C, C28A, A30C, G31U
DNA 1: CAATCTGAATTCCGGTCTCCC
DNA 2: TGGTGGCTACGACGGGATT

molecular target: T1, RBFOX1 RRM RbFoxmut (Fox-RRM*); assay: EMSA; HiTS-Eq, 1 nM pool, 10 min; buffer printed only for the single-RNA assays: 10 mM Tris pH 7.5, 150 mM NaCl, 3.4 mM EDTA, 0.001% NP-40, 30 C; details: tags: His6 N-terminal (pET28a); label: 5' 32P
Outline: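 Purified wild-type or mutant RbFox RRM at increasing concentrations was equilibrated with 1 nM of 5′-radiolabelled RNA carrying 7 randomized nucleotides for 10 min in 50 µL. Unbound RNA was separated by 8% native PAGE and sequenced. Relative association constants came from read-count changes of each RNA species compared with the control reaction, normalised to the cognate motif.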

Binder | binding signal
B1 | 0.104 KA relative to UGCAUGU
B2 | 0.0957 KA relative to UGCAUGU
B3 | 0.114 KA relative to UGCAUGU
B4 | 0.107 KA relative to UGCAUGU
B5 | 0.0686 KA relative to UGCAUGU
B6 | 0.181 KA relative to UGCAUGU
B7 | 0.0901 KA relative to UGCAUGU
B8 | 0.086 KA relative to UGCAUGU
B9 | 0.0817 KA relative to UGCAUGU
B10 | 0.102 KA relative to UGCAUGU
B11 | 0.111 KA relative to UGCAUGU
B12 | 0.078 KA relative to UGCAUGU
B13 | 0.0915 KA relative to UGCAUGU
B14 | 0.0948 KA relative to UGCAUGU
B15 | 0.0863 KA relative to UGCAUGU
B16 | 0.111 KA relative to UGCAUGU

Binder | binding signal
B17 | 0.232 KA relative to UGCAUGU
B18 | 0.0708 KA relative to UGCAUGU
B19 | 0.211 KA relative to UGCAUGU
B20 | 0.0945 KA relative to UGCAUGU
B21 | 0.39 KA relative to UGCAUGU
B22 | 0.297 KA relative to UGCAUGU
B23 | 0.13 KA relative to UGCAUGU
B24 | 0.0608 KA relative to UGCAUGU
B25 | 0.12 KA relative to UGCAUGU
B26 | 0.0705 KA relative to UGCAUGU
B27 | 0.0926 KA relative to UGCAUGU
B28 | 0.115 KA relative to UGCAUGU
B29 | 0.087 KA relative to UGCAUGU
B30 | 0.0659 KA relative to UGCAUGU
B31 | 0.0739 KA relative to UGCAUGU
